This is one part of the list.
Columns and labels:
Assay in all cases: glycan array binding signal (z-score within array); higher = stronger binding
Settings in all cases: glycan notation: IUPAC condensed, linker removed
Gal(b1-4)Glc = target: Gal(b1-4)Glc
In short: (§1)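 Glycan array data came from 3228 arrays in the Consortium for Functional Glycomics database, and only arrays with an available protein sequence were kept. Glycan names were put into IUPAC-condensed notation, and columns mapping to the same glycan were averaged. The binding signal is a within-array Z-score, averaged across arrays of one protein sequence run at different concentrations or buffers and across linkers. A negative Z-score can be read as non-binding.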

Gal(b1-4)Glc6S = target: Gal(b1-4)Glc6S
In short: as §1

Gal(b1-4)GlcNAc = target: Gal(b1-4)GlcNAc
In short: as §1

[1] = target: Gal(b1-4)GlcNAc(a1-6)Gal(b1-4)GlcNAc
In short: as §1

Gal(b1-4)GlcNAc(b1-2)Man = target: Gal(b1-4)GlcNAc(b1-2)Man
In short: as §1

[2] = target: Gal(b1-4)GlcNAc(b1-2)Man(a1-3)Man(b1-4)GlcNAc(b1-4)GlcNAc
In short: as §1

[3] = target: Gal(b1-4)GlcNAc(b1-2)Man(a1-3)[Gal(b1-4)GlcNAc(b1-2)Man(a1-6)]Man(b1-4)GlcNAc(b1-4)GlcNAc
In short: as §1

[4] = target: Gal(b1-4)GlcNAc(b1-2)Man(a1-3)[Gal(b1-4)GlcNAc(b1-2)Man(a1-6)]Man(b1-4)GlcNAc(b1-4)[Fuc(a1-6)]GlcNAc
In short: as §1

[5] = target: Gal(b1-4)GlcNAc(b1-2)Man(a1-3)[Gal(b1-4)GlcNAc(b1-2)Man(a1-6)][Gal(b1-4)GlcNAc(b1-4)]Man(b1-4)GlcNAc(b1-4)[Fuc(a1-6)]GlcNAc
In short: as §1

[6] = target: Gal(b1-4)GlcNAc(b1-2)Man(a1-3)[Gal(b1-4)GlcNAc(b1-2)Man(a1-6)][GlcNAc(b1-4)]Man(b1-4)GlcNAc(b1-4)[Fuc(a1-6)]GlcNAc
In short: as §1

[7] = target: Gal(b1-4)GlcNAc(b1-2)Man(a1-3)[Gal(b1-4)GlcNAc(b1-2)][GlcNAc(b1-4)]Man(b1-4)GlcNAc(b1-4)GlcNAc
In short: as §1

[8] = target: Gal(b1-4)GlcNAc(b1-2)Man(a1-3)[GlcNAc(b1-2)Man(a1-6)]Man(b1-4)GlcNAc(b1-4)GlcNAc
In short: as §1

[9] = target: Gal(b1-4)GlcNAc(b1-2)Man(a1-3)[GlcNAc(b1-4)][Gal(b1-4)GlcNAc(b1-2)Man(a1-6)]Man(b1-4)GlcNAc(b1-4)GlcNAc
In short: as §1

[10] = target: Gal(b1-4)GlcNAc(b1-2)Man(a1-3)[Man(a1-6)]Man(b1-4)GlcNAc(b1-4)GlcNAc
In short: as §1

[11] = target: Gal(b1-4)GlcNAc(b1-2)Man(a1-6)Man(b1-4)GlcNAc(b1-4)GlcNAc
In short: as §1

[12] = target: Gal(b1-4)GlcNAc(b1-2)Man(a1-6)[GlcNAc(b1-2)Man(a1-3)]Man(b1-4)GlcNAc(b1-4)GlcNAc
In short: as §1

[13] = target: Gal(b1-4)GlcNAc(b1-2)Man(a1-6)[Man(a1-3)]Man(b1-4)GlcNAc(b1-4)GlcNAc
In short: as §1

[14] = target: Gal(b1-4)GlcNAc(b1-2)[Gal(b1-4)GlcNAc(b1-4)]Man(a1-3)[Gal(b1-4)GlcNAc(b1-2)Man(a1-6)]Man(b1-4)GlcNAc(b1-4)GlcNAc
In short: as §1

[15] = target: Gal(b1-4)GlcNAc(b1-2)[Gal(b1-4)GlcNAc(b1-4)]Man(a1-3)[Gal(b1-4)GlcNAc(b1-2)[Gal(b1-4)GlcNAc(b1-6)]Man(a1-6)]Man(b1-4)GlcNAc(b1-4)GlcNAc
In short: as §1

B1: Gal 9 (Homo sapiens), O00182 (protein)
chain: MAFSGSQAPYLSPAVPFSGTIQGGLQDGLQITVNGTVLSSSGTRFAVNFQTGFSGNDIAFHFNPRFEDGGYVVCNTRQNGSWGPEERKTHMPFQKGMPFDLCFLVQSSDFKVMVNGILFVQYFHRVPFHRVDTISVNGSVQLSYISFQNPRTVPVQPAFSTVPFSQPVCFPPRPRGRRQKPPGVWPANPAPITQTVIHTVQSAPGQMFSTPAIPPMMYPHPAYPMPFITTILGGLYPSKSILLSGTVLPSAQRFHINLCSGNHIAFHLNPRFDENAVVRNTQIDNSWGSEERSLPRKMPFVRGQSFSVWILCEAHCLKVAVDGQHLFEYYHRLRNLPTINRLEVGGDIQLTHVQT
For B1, the “glycan array binding signal (z-score)” value (Gal(b1-4)Glc) was -0.325, the “glycan array binding signal (z-score)” value (Gal(b1-4)Glc6S) was -0.313 and the “glycan array binding signal (z-score)” value (Gal(b1-4)GlcNAc) was -0.282. For the same binder, the “glycan array binding signal (z-score)” value [1] was 0.387, the “glycan array binding signal (z-score)” value (Gal(b1-4)GlcNAc(b1-2)Man) was -0.235 and the “glycan array binding signal (z-score)” value [2] was 0.635. The “glycan array binding signal (z-score)” value [3] was 2.94, the “glycan array binding signal (z-score)” value [4] was 0.756 and the “glycan array binding signal (z-score)” value [5] was -0.269. For the same binder, the “glycan array binding signal (z-score)” value [6] was -0.289, the “glycan array binding signal (z-score)” value [7] was 3.85 and the “glycan array binding signal (z-score)” value [8] was 0.225. For the same binder, the “glycan array binding signal (z-score)” value [9] was -0.277, the “glycan array binding signal (z-score)” value [10] was 0.484 and the “glycan array binding signal (z-score)” value [11] was 0.03. The “glycan array binding signal (z-score)” value [12] was -0.116, the “glycan array binding signal (z-score)” value [13] was 0.09 and the “glycan array binding signal (z-score)” value [14] was 0.957. The “glycan array binding signal (z-score)” value [15] was 4.71.
